Results on 29 compounds are retold here after PubChem BioAssay AID1347073 (National Center for Advancing Translational Sciences (NCATS), 2019).

The whole screen tested about 45,000 compounds, of which about 200 (0.44%) were called active. Inconclusive results (about 7%) are left out. Calls come from the whole dose curve; as a rule, active = well fitted activation curve with a large enough effect; inconclusive = small, poorly fitted or top-dose-only effect; inactive = no such curve, though single readings can be large or run the other way. This is one part of the list.

A short description of this experiment: qHTS of TDP-43 Inhibitors: NCGC Sytravon Library Screen. Note: 0% is about no effect; nearly all actives have a fitted effect of over 55% in size. To be noted: yeast TDP-43 toxicity rescue, BacTiter-Glo growth, 24 h; series mostly up to 46.1 µM; growth rescue (activation): at the top concentration. Put shortly: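 TDP-43-expressing yeast, pregrown in raffinose, seeded at OD600 0.02 in galactose medium with compound for 24 hr at 30 deg C. Growth read by BacTiter-Glo luminescence, so rescue of toxicity appears as activation.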
As for `C(=N\Nc1nc(N2CCCC2)nc(N2CCCC2)n1)/c1ccccc1OCc1ccccc1`, the “growth rescue (activation)” value is inactive: -7.91%.

For the compound `CN(/N=C/c1ccc(-c2ccc([N+](=O)[O-])cc2)o1)c1ccccc1`, the “growth rescue (activation)” value was inactive: 2.69%.

On to `CN(C)c1ccc(CC(=O)N2CCCCC2c2cc(C(=O)Nc3ccccc3)no2)cc1` (centres undefined), for which the “growth rescue (activation)” value is inactive: -9.66%.

Turning to `COCc1cccc(-c2csc(C(NC(C)=O)c3ccc(F)c(F)c3)n2)c1` (centres undefined), the “growth rescue (activation)” value was inactive: 19.7%.

Regarding `Cc1nnc(NC(=O)COc2ccc3c(C)cc(=O)oc3c2)s1`, the “growth rescue (activation)” value is inactive: 23.7%.

For the compound `CC(=O)CSc1ncnc2scc(-c3ccc(F)cc3)c12`, the “growth rescue (activation)” value is inactive: -0.5%.

Consider `C=CCn1c(SCC(=O)c2cc(C)n(CCOC)c2C)nc2sc(C)c(C)c2c1=O`, for which the “growth rescue (activation)” value was inactive: -28.8%.

In the case of `O=C(Cc1cn(-c2ccccc2)nc1-c1ccccc1)N1CCCCC1`, the “growth rescue (activation)” value is inactive: 27.4%.

With `N#Cc1c(NC(=S)NC(=O)c2ccccc2)sc2c1CCC2`, the “growth rescue (activation)” value is inactive: 14.7%.

Turning to `COc1ccc(CCNC(=O)c2cc(S(=O)(=O)N3CCC4(CC3)OCCO4)ccc2F)cc1OC`, the “growth rescue (activation)” value is inactive: -0.503%.

As to `Cc1ccc2nc(Cn3cc(C(F)(F)F)ccc3=O)cc(=O)n2c1`, the “growth rescue (activation)” value is inactive: 10.8%.

As for `O=C(Nc1cccc(Cl)c1Cl)C1CCCO1` (centres undefined), the “growth rescue (activation)” value is inactive: -0.261%.

As to `CCN(CC)S(=O)(=O)c1cccc(NC(=O)COC(=O)C2COc3ccccc3O2)c1` (centres undefined), the “growth rescue (activation)” value is inactive: 11.5%.

For `Cc1nc(C(=O)N2CCc3c([nH]c4ccccc34)C2c2cc(F)ccc2F)cs1` (centres undefined), the “growth rescue (activation)” value was inactive: 14.3%.

On to `O=C(COC(=O)c1ccc(N2CCOCC2)c([N+](=O)[O-])c1)Nc1ccc2c(c1)OCO2`, for which the “growth rescue (activation)” value was inactive: 24.1%.

Consider `COc1ccc(/C=C2/C(=O)ON=C2C)cc1Cl`, for which the “growth rescue (activation)” value is inactive: -6.74%.

Consider `O=C(NC(=S)Nc1ccc2oc(=O)ccc2c1)c1cccc(Cl)c1`, for which the “growth rescue (activation)” value was inactive: -1.16%.

In the case of `Cc1ccc(C(=O)NCC(=O)N(C)Cc2cccc(F)c2)s1`, the “growth rescue (activation)” value was inactive: -7.24%.

For the compound `O=C(CN(Cc1ccccc1Cl)C(=O)CCC(=O)Nc1nccs1)NCC1CCCO1` (centres undefined), the “growth rescue (activation)” value is inactive: 17.8%.

As for `Cc1ccc(C)c(NC(=O)COC(=O)c2cccc3c2C(=O)c2ccccc2C3=O)c1`, the “growth rescue (activation)” value is inactive: 3.14%.

As to `O=C(O)C1CCCCC1C(=O)NC(c1ccccc1)c1ccccc1` (centres undefined), the “growth rescue (activation)” value was inactive: 3.61%.

For `O=[N+]([O-])c1cc(S(=O)(=O)N2CCOCC2)ccc1N1CCCC1`, the “growth rescue (activation)” value was inactive: 8.1%.

Consider `CN(C)c1cccc(C(=O)NCc2ccccc2Cl)c1`, for which the “growth rescue (activation)” value was inactive: -9.82%.

As for `CC(C)Oc1ccc(CCc2nnc(SC(C)C(=O)O)n2-c2ccccc2)cc1` (centres undefined), the “growth rescue (activation)” value is inactive: 2.12%.

On to `CCOc1ccc(C(C(=O)NCC2CCCO2)N(Cc2cccs2)C(=O)c2snc(C(N)=O)c2N)cc1` (centres undefined), for which the “growth rescue (activation)” value is inactive: -4.11%.

`Cc1ccc(C)c(CN2CCC(CNC(=O)Nc3cccc(Cl)c3C)CC2)c1`: the “growth rescue (activation)” value is inactive: 0.169%.

Turning to `c1cnc(N2CCN(Cc3ccc4c(c3)OCO4)CC2)cn1`, the “growth rescue (activation)” value was inactive: 4.57%.

`CCN(CC)CCOc1c(C)cccc1Cl`: the “growth rescue (activation)” value is inactive: 13.9%.

As to `CCCn1c(N)c(C(=O)COC(=O)COc2ccc(Cl)c(C)c2)c(=O)n(C)c1=O`, the “growth rescue (activation)” value is inactive: 10.5%.
